“And” between values parts separate entries of the source, which are not always exact repeats. Equal entries are not always repeated. Hit rate of the full screen: of about 420,000 compounds, about 64,000 (15%) were called active. Inconclusive means that the source gave no clear call. Such entries were picked first, then a sample of the others. Calls follow the shape of the dose curve; as a rule, active = well fitted inhibition curve with a large enough effect; inconclusive = small, poorly fitted or top-dose-only effect; inactive = flat fitted curve, though single readings scatter. Potencies beside an inconclusive call are fits to weak or partial responses and may not hold up.
Assay: qHTS for Inhibitors of human tyrosyl-DNA phosphodiesterase 1 (TDP1): qHTS in cells in absence of CPT; also: nearly all actives have a fitted effect of over 55% in size
Conditions: DT40 Tdp1-/- hTDP1 cells, no CPT, ATP luminescence, 48 h; activity change, negative = growth inhibition: at 46.2 µM (top of the series)
Procedure, shortened: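 Stably hTDP1-transfected Tdp1-null chicken DT40 cells were treated with library compounds minus camptothecin and grown for at least 48 hr at 37 °C, after which cellular ATP was quantified by luminescence.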
% is scaled to controls: 0 for no effect and ±100 for the full control effect; potency is read from the fitted curve at half-maximal effect; tags tell the direction and shape of the fitted curve.

With `C=CCOC(=O)C1=C[C@@H](c2coc3ccccc3c2=O)[C@H](CCCO)[C@@H](OCC)O1` as the compound, how does the Potency read?
The Potency was inconclusive: 11.6 µM [inhibitor, partial curve].

With `Cc1ccc2c(c1)N(S(=O)(=O)c1cc(-c3onc(C)c3C)ccc1C)CCO2` as the compound, how does the Potency read?
The Potency was active: 11.6 µM and active: 9.2 µM.

For `COc1ccccc1NS(=O)(=O)c1ccc(C)c(C(=O)NC2=NCCS2)c1`, which Potency is on record?
Its Potency is “inactive”.

For `COc1cccc(-n2cc(C(=O)OCc3ccc(F)c(F)c3)c3ccccc3c2=O)c1`, which Potency is on record?
The Potency was inconclusive: 29.1 µM [inhibitor, single point].

Which Potency does the source give for `Cc1cccc(NC(=S)Nc2cccc3ccccc23)c1` here?
Its Potency is “inactive”.

Which Potency does the source give for `O=C(CNc1cccc([N+](=O)[O-])c1)N/N=C/c1ccc([N+](=O)[O-])o1` here?
Its Potency is active: 2.59 µM.

Which Potency does the source give for `O=C1/C(=C/c2ccc(O)cc2)SC(=S)N1CC1CCCO1` (stereo not given) here?
The Potency was inconclusive: 23.1 µM [inhibitor, single point].

Which Potency does the source give for `CCCCNc1nc2c(c(=O)n(C)c(=O)n2C)n1CC(O)COc1ccccc1C` (stereo not given) here?
The Potency was active: 18.4 µM.

Which Potency does the source give for `CN(C)S(=O)(=O)N1CCN(c2ccnc3cc(Cl)ccc23)CC1` here?
Its Potency is active: 13 µM.

Which Potency does the source give for `CC(C)C(NC(=O)c1ccccc1F)C(=O)NCc1ccccc1` (stereo not given) here?
The Potency was inconclusive: 29.1 µM [inhibitor, single point].

With `C=CCNC(=O)c1ccc(-c2ccc([N+](=O)[O-])cc2)o1` as the compound, how does the Potency read?
Its Potency is inconclusive: 25.9 µM [inhibitor, single point].

For `O=C(COc1ccc(Br)cc1F)NC1CCN(Cc2ccccc2)CC1`, which Potency is on record?
The Potency was inconclusive: 29.1 µM [inhibitor, single point].

Which Potency does the source give for `CC1=C(C(=O)Nc2ccc(C(=O)NCCCN3CCCCC3)cc2)SCCO1` here?
The Potency was “inactive”.

For `CCn1cc(C(=O)N2CCN(C(=O)c3ccco3)CC2)c2cc(OC)c(OC)cc2c1=O`, which Potency is on record?
The Potency was “inactive”.

Which Potency does the source give for `CCOC(=O)c1cc2c(=O)n3cccc(C)c3nc2n(Cc2ccco2)c1=NC(=O)c1cccnc1` here?
Its Potency is inconclusive: 14.6 µM [inhibitor, single point].

Which Potency does the source give for `O=C(N/N=C/c1cccnc1)c1ccccc1Br` here?
The Potency was “inactive”.

Which Potency does the source give for `COc1ccc(-c2cc3nc(-c4ccccc4)cc(N4CCN(C(=O)c5ccoc5)CC4)n3n2)cc1` here?
The Potency was active: 8.2 µM.

With `COc1cccc(OC)c1C(=O)OCC(=O)NCC1CCCCC1` as the compound, how does the Potency read?
The Potency was inconclusive: 18.4 µM [inhibitor, single point].

For `CCOC(=O)c1c(C)[nH]c(C(=O)Cn2nnc(-c3ccccc3Cl)n2)c1C`, which Potency is on record?
Its Potency is “inactive”.

For `CCOc1ccccc1-n1nnc(-c2nc(-c3ccccc3C)no2)c1C`, which Potency is on record?
Its Potency is inconclusive: 29.1 µM [inhibitor, partial curve, poor fit].

Which Potency does the source give for `COc1ccc(C(=O)N2CCN(c3c(C)cccc3C)CC2)cc1OC` here?
Its Potency is inconclusive: 16.4 µM [inhibitor, partial curve].

Which Potency does the source give for `O=C(Nc1ccccc1F)Nc1cc(Cl)ccc1-n1cncn1` here?
The Potency was inconclusive: 29.1 µM [inhibitor, single point].

Which Potency does the source give for `CCOc1ccc(/C=C/c2cc[n+](C)c3ccccc23)cc1OCC` here?
Its Potency is inconclusive: 15.8 µM [inhibitor, single point].

Which Potency does the source give for `Cc1ccc(N2CCN(C(=O)CCc3nc4ccccc4[nH]3)CC2)c(C)c1` here?
Its Potency is inconclusive: 18.4 µM [inhibitor, single point].

Which Potency does the source give for `O=C(O)c1cccc(Nc2ncnc3ccc(Br)cc23)c1` here?
Its Potency is “inactive and inconclusive: 29.1 µM [inhibitor, single point]”.

For `C=CCSc1nc(-c2ccccc2)c(C#N)c(=O)[nH]1`, which Potency is on record?
Its Potency is “inactive”.

For `Cc1ccc(S(=O)(=O)CC(=O)Nc2nccs2)cc1`, which Potency is on record?
Its Potency is “inactive”.

Which Potency does the source give for `CCOC(=O)c1ccc(S(=O)(=O)NCCN(CC)CC)cc1` here?
Its Potency is inconclusive: 20.6 µM [inhibitor, partial curve].

For `Cc1csc(-c2cnn(-c3ccccc3)c2NC(=O)c2ccc(C(F)(F)F)cc2)n1`, which Potency is on record?
Its Potency is active: 23.1 µM.

With `Cc1ccsc1/C=N/NC(=S)NCc1ccccc1` as the compound, how does the Potency read?
The Potency was inconclusive: 16.4 µM [inhibitor, single point].

Which Potency does the source give for `Cc1sc2ccccc2[n+]1CCc1ccccc1` here?
Its Potency is active: 3.16 µM.

For `Cc1ccc(Cl)cc1NC(=O)N1CCC(CN2CCCCCC2)CC1`, which Potency is on record?
The Potency was inconclusive: 29.1 µM [inhibitor, single point].

Which activity change, negative = growth inhibition does the source give for `Cc1cc(OC(F)F)ccc1NC(=S)NCCc1ccccc1` here?
The activity change, negative = growth inhibition was inconclusive: -32.6% [inhibitor].

Which Potency does the source give for `COCCn1c(C)cc(C2=NNC(=Nc3ccc(Cl)cc3Cl)SC2)c1C` here?
Its Potency is inconclusive: 14.6 µM [inhibitor, single point].

Which Potency does the source give for `CC(=O)N1c2ccc(S(=O)(=O)N3CCCC(C(=O)N4CCCCC4)C3)cc2CC1C` (stereo not given) here?
The Potency was inconclusive: 18.4 µM [inhibitor, single point].

With `Cc1ccc(NC(=O)CSc2ccc3nnc(CCNS(=O)(=O)c4ccccc4)n3n2)cc1Cl` as the compound, how does the Potency read?
Its Potency is inconclusive: 29.1 µM [inhibitor, single point].

Which Potency does the source give for `CCN(CC)c1ccc(/C=N/NC(=O)Nc2ccccc2)cc1` here?
The Potency was inconclusive: 23.1 µM [inhibitor, single point].

For `Cn1nnnc1SCC(=O)NNC(=O)c1ccc(Cl)cc1`, which Potency is on record?
The Potency was “inactive”.

With `O=C(c1ccc(Cl)c(S(=O)(=O)N2CCOCC2)c1)N1CCN(c2ccccc2)CC1` as the compound, how does the Potency read?
The Potency was inconclusive: 29.1 µM [inhibitor, single point].

Which Potency does the source give for `COc1cccc(-n2c(SCC(N)=O)nnc2-c2ccco2)c1` here?
Its Potency is “inactive”.

With `O=C1C=C(c2ccc3ccccc3c2)C[C@@H](c2ccc(Cl)cc2)C1` as the compound, how does the Potency read?
Its Potency is inconclusive: 18.4 µM [inhibitor, single point].

For `CC(C)N(C(=O)CSc1nnc(Cn2nnc3ccccc32)n1C)C(C)C`, which Potency is on record?
Its Potency is “inactive”.

For `Cc1ccccc1NC(=O)c1cccc2c(=O)c3c([nH]c12)CCCC3`, which Potency is on record?
The Potency was inconclusive: 29.1 µM [inhibitor, single point].

With `CN(Cc1ccccc1)C(=O)COC(=O)c1cc(-c2ccc(Cl)s2)nc2ccccc12` as the compound, how does the Potency read?
Its Potency is “inactive”.

Which Potency does the source give for `O=C(CN1CCN(C(c2ccccc2)c2ccccc2)CC1)NCc1ccccc1` here?
Its Potency is inconclusive: 29.1 µM [inhibitor, single point].

Which Potency does the source give for `Cc1ccc2cc(CN(C)C(=O)c3cccc(Cl)c3)c(=O)[nH]c2c1` here?
Its Potency is inconclusive: 29.1 µM [inhibitor, single point].

With `O=C(C1COc2ccccc2O1)N1CCn2c(nc3ccccc32)C1` (stereo not given) as the compound, how does the activity change, negative = growth inhibition read?
The activity change, negative = growth inhibition was inconclusive: -30.7% [inhibitor].

Which Potency does the source give for `COc1ccc(C(=O)Oc2coc(CSc3nnc(NC(=O)c4cccs4)s3)cc2=O)cc1` here?
The Potency was “inactive”.

With `Cn1c(SCCOc2ccccc2F)nc2ccccc2c1=O` as the compound, how does the Potency read?
Its Potency is active: 16.4 µM.

For `CCC(C)n1c(SCC(=O)N(CC)c2c(N)n(Cc3ccccc3)c(=O)[nH]c2=O)nc2ccccc2c1=O` (stereo not given), which Potency is on record?
Its Potency is “inactive”.

With `CC(=O)c1sc2nc(C)cc(C)c2c1N` as the compound, how does the Potency read?
The Potency was inconclusive: 29.1 µM [inhibitor, single point].

Which Potency does the source give for `Nc1ccc(/C=C/c2ccc(N)cc2S(=O)(=O)O)c(S(=O)(=O)O)c1` here?
Its Potency is “inactive”.

Which Potency does the source give for `COC(=O)c1ccc(CNC(=O)COC(=O)c2ccccc2-c2ccccc2)cc1` here?
Its Potency is inconclusive: 29.1 µM [inhibitor, single point].

With `CCN1CCN(Cc2ccc(NC(=O)Nc3ccc(SC)cc3)cc2)CC1` as the compound, how does the Potency read?
Its Potency is inconclusive: 32.6 µM [inhibitor, single point].

For `CCCCN(CCCC)S(=O)(=O)c1c(C)[nH]c(=O)[nH]c1=O`, which Potency is on record?
The Potency was “inactive”.

Which Potency does the source give for `COC(=O)c1ccc(/C=N\NC(=O)c2ccc(C)cc2Cl)cc1` here?
The Potency was “inactive”.

With `Cc1cc(OCCCC(=O)NNC(=O)c2ccncc2)ccc1Cl` as the compound, how does the Potency read?
Its Potency is “inactive”.

For `C=CCNC(=O)c1c(CSc2ccc(Cl)cc2)noc1C(=O)NCc1ccccc1`, which Potency is on record?
The Potency was inconclusive: 25.9 µM [inhibitor, single point].

For `O=C1NC[C@@H](CCCCN2C[C@H](Cc3ccccc3)N(CC3CCCCC3)C(=O)C2=O)N(CCc2ccccc2)C1=O`, which Potency is on record?
Its Potency is “inactive”.

For `COc1cc(C)c(Br)cc1S(=O)(=O)NCc1ccccc1`, which Potency is on record?
The Potency was “inactive”.

With `O=C(CN(Cc1ccccc1Cl)C(=O)c1csnn1)NCCc1ccccc1` as the compound, how does the Potency read?
Its Potency is “inactive”.

With `CCC(C)n1ncn(-c2ccc(N3CCN(c4ccc(OCC5COC(Cn6cncn6)(c6ccc(Cl)cc6Cl)O5)cc4)CC3)cc2)c1=O` (stereo not given) as the compound, how does the Potency read?
The Potency was active: 2.31 µM.

Which Potency does the source give for `Cc1cc(N=NC(=O)c2ccccc2O)c2ccccc2c1O` here?
Its Potency is active: 18.4 µM.

For `CCC1CN(C(=O)Nc2cc(C)ccc2OC)c2cc(Cl)ccc2O1` (stereo not given), which Potency is on record?
The Potency was “inactive”.

With `COc1ccc(C(N)c2csc(NC(=O)Nc3ccccc3C(C)(C)C)n2)cc1` (stereo not given) as the compound, how does the Potency read?
The Potency was inconclusive: 18.4 µM [inhibitor, single point].

Which Potency does the source give for `NNC(=O)C1CC1c1ccc(Cl)cc1` (stereo not given) here?
The Potency was “inactive”.

Which Potency does the source give for `CCOC(=O)C1=CCN(S(=O)(=O)c2ccc(F)cc2)C1c1ccc(Cl)c(Cl)c1` (stereo not given) here?
Its Potency is inconclusive: 18.4 µM [inhibitor, single point].

With `CCOc1ccc(-c2c(=O)n(OCc3nc4ccccc4[nH]3)c3ccccc3[n+]2[O-])cc1` as the compound, how does the Potency read?
Its Potency is active: 23.1 µM.

With `COc1ccc(NC(=O)C2Cc3c(-c4ccc(NC(C)=O)cc4)ccnc3O2)cc1` (stereo not given) as the compound, how does the Potency read?
The Potency was active: 16.4 µM.

Which Potency does the source give for `COc1ccccc1-c1ccc(NC2CCCCC2)nn1` here?
Its Potency is inconclusive: 22.4 µM [inhibitor, single point].

With `COc1ccc(C(=O)N2CCN(c3nc(C4CC4)nc4sc(C)c(C)c34)CC2)cc1` as the compound, how does the Potency read?
Its Potency is active: 20.6 µM.

With `CC(C)(C)OC(=O)N1CCC(NC(=O)c2nc[nH]c2C(=O)N2CCN(c3ccccc3)CC2)CC1` as the compound, how does the Potency read?
Its Potency is inconclusive: 18.4 µM [inhibitor, single point].

With `CCC(CC)C(=O)c1c[nH]c(C(=O)NCc2ccccn2)c1` as the compound, how does the Potency read?
The Potency was “inactive”.

With `CCCc1nnc(SCc2ccc(OC)cc2)n1N` as the compound, how does the Potency read?
Its Potency is active: 18.4 µM.

With `Cc1ccc(NC(=O)c2nn(C34CC5CC(CC(C5)C3)C4)cc2[N+](=O)[O-])cc1` as the compound, how does the Potency read?
The Potency was inconclusive: 23.1 µM [inhibitor, single point].

Source: PubChem BioAssay AID686978 (National Center for Advancing Translational Sciences (NCATS), 2013)
